Source: PubChem BioAssay AID493208 (National Center for Advancing Translational Sciences (NCATS), 2011)
Hit rate of the full screen: of about 44,000 compounds, about 340 (0.77%) were called active. About 5% were inconclusive and are not listed. The call rests on the fitted dose curve; in most records, active means well fitted inhibition curve with a large enough effect; inconclusive means small, poorly fitted or top-dose-only effect; inactive means flat fitted curve, though single readings scatter. Some of the results follow.

Test: Acumen qHTS Assay for Inhibitors of the mTORC1 Signaling Pathway in MEF (Tsc2-/-, p53-/-) Cells: Sytravon;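 further: plate controls were DMSO for no effect and rapamycin for full effect; nearly all actives have a fitted effect of over 50% in size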
Settings: phospho-rpS6 immunofluorescence/PI, 24 h; series mostly up to 38.3 µM; activity change, negative = inhibition: at the top concentration
Method in brief: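 Plate MEFs (Tsc2-/-, p53-/-, empty vector) in DMEM/10% FBS; after 24 h add compound, incubate 24 h at 37 degree Celsius; fix in PFA/TX-100, block, stain phospho-rpS6 and 10 uM PI; scan at 488 nm; report % positive cells.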

Activity change, negative = inhibition, inactive:
O=C1Nc2c(c(=O)[nH]c(=O)n2-c2ccccc2)C1(NS(=O)(=O)c1ccc(Cl)cc1)C(F)(F)F (stereo not given) 3.35%
CCOc1ccccc1/C=C/c1onc(C)c1S(=O)(=O)N1CCC(C(=O)N(CC)CC)CC1 -5.19%
Cc1ccc(NC(=O)Cn2c(=O)n(CCCCCC(=O)NCc3ccc(F)cc3)c(=O)c3sccc32)cc1C -2.53%
O=C(Cc1ccc(F)cc1)NC1CC(=O)N(c2ccccc2)C1 (stereo not given) 0.0373%
CCOc1ccc(Cn2nnc3c(=O)[nH]c(C4CCN(C(=O)c5ccccc5)CC4)nc32)cc1 1.1%
COc1cc(-c2nnc(SCC(=O)NCc3ccccc3Cl)o2)cc(OC)c1OC 2.89%
Cc1cc(C)cc(-n2nnc(-c3nc(-c4ccc5c(c4)OCO5)no3)c2C)c1 9.45%
CC(=O)c1ccc(NC(=O)c2cn3c4c(ccc(Cl)c4c2=O)OC(C)C3)cc1 (stereo not given) 1.28%
COc1cc2c(=O)n(CCC(=O)NCC3CCCO3)c(=O)n(CC(=O)Nc3ccc(C)cc3)c2cc1OC (stereo not given) 14.7%
Cc1ccc(S(=O)(=O)C(CNC(=O)C(=O)NCc2ccc(Cl)cc2)c2cccs2)cc1 (stereo not given) -0.0524%
Cc1ccc(C(=O)NCCn2c(C)cc3ccccc32)cc1C -6.53%
CC(Oc1ccc(F)cc1)C(=O)NCC1(N(C)C)CCCCC1 (stereo not given) -0.618%
Cc1c(NC(=O)c2ccc(OC(C)C)cc2)cccc1-c1nc2ncccc2o1 6.32%
Cc1ccc(S(=O)(=O)c2cn(CC(=O)Nc3ccc(C)c(Cl)c3)c3ccc(C)cc3c2=O)cc1 -17%
COc1cccc(C(=O)NCCSc2c(-c3ccc(F)cc3)[nH]c3ccccc23)c1OC -20.4%
Cc1ccc(CNC(=O)C2CCCN(S(=O)(=O)c3ccc4c(c3)oc(=O)n4C)C2)cc1 (stereo not given) -6.13%
O=C1CN(C(=O)c2ccc(S(=O)(=O)N3CCCCC3)cc2)C(c2ccc(F)cc2)c2cc(F)ccc2N1 (stereo not given) -0.242%
CC(C)Oc1ccc(CNC(=O)CCCn2c(=O)c3cccn3c3ccccc32)cc1 -0.644%
CCCS(=O)(=O)Nc1cc(-c2cn3cccc(C)c3n2)ccc1C -0.483%
Cc1ccc(NCc2cccn2-c2nnc(N3CCC(C(=O)NC(C)C)CC3)s2)cc1 -9.09%
COc1ccc(-c2cn3nc(N4CCC(C(=O)NCc5ccccc5F)CC4)sc3n2)cc1 -10.4%
Cc1ccc(S(=O)(=O)N2CCCc3cc(NS(=O)(=O)c4ccc(F)c(C)c4)ccc32)cc1 0%
COc1ccc(-c2cc(C(F)(F)F)c(C#N)c(SCC(=O)Nc3ccc(F)cc3)n2)cc1 1.23%
COc1ccc(NC(=O)Cn2c(=O)oc3cc(S(=O)(=O)NC4CCCC4)ccc32)cc1OC 0.349%
CCCNC(=O)c1ccc2c(c1)ncn2-c1ccc(C)cc1C 6.83%
COc1ccc(CNc2ncnc3onc(C)c23)cc1 -5.53%
CCOC(=O)c1c(NC(=O)CS(=O)(=O)c2ccc(C)cc2)sc2c1CCCCC2 -6.09%
Cc1nc(-c2ccccc2)sc1-c1ccc(SCC(=O)NCc2ccc(F)cc2)nn1 -0.348%
Cn1c(=O)c2c(SCC(=O)N3CCc4ccccc43)nc(-c3ccccc3Cl)nc2n(C)c1=O -16.7%
Cc1ccc(C(C)C)c(OCC(=O)Nc2cccc(NC(=O)c3ccco3)c2)c1 0.706%
CC1=Nc2cc(C(=O)NCCc3ccc(Cl)cc3)ccc2Sc2ccc(C)cc21 -16%
CCC(CC)C(=O)NC1CC(=O)N(c2ccc3c(c2)OCCO3)C1 (stereo not given) -2.5%
Cc1ccc(-c2nc3cccnc3s2)cc1NC(=O)C(C)C 0%
Cc1ccc(-c2ccc(=O)n(Cc3cc(C)ccc3C)n2)cc1 -1.58%
COC(=O)C(Cc1c[nH]c2ccccc12)NC(=O)COc1ccc(Cl)cc1Cl (stereo not given) 3.99%
CCN(c1cc(C)cc(C)c1)S(=O)(=O)c1nnc(NC(=O)c2cccs2)s1 1.2%
CCOc1ccc(-n2c(CCC(=O)O)ccc2-c2ccc(Br)cc2)cc1 -0.0581%
CCc1ccc(CNC(=O)CCSCc2ccccc2F)cc1 5.04%
Cc1cccc(NS(=O)(=O)c2ccc3[nH]c(=O)ccc3c2)c1C 0%
COc1ccc(C(=O)c2cn(CC(=O)Nc3ccc4c(c3)OCCO4)c3ccc(OC)cc3c2=O)cc1 0.564%
COc1ccccc1OCCn1c(-c2ccc(Cl)cc2)nc2ccccc2c1=O -8.3%
O=C(CSc1nc(-c2ccccc2)no1)N1CCN(c2ccccc2F)CC1 7.27%
COc1cccc(C2=CC(c3ccc(OC)c(OC)c3OC)n3ncnc3N2)c1 (stereo not given) -1.65%
O=C(Cn1c(=O)nc(-c2ccccc2)c2ccccc21)Nc1ccc(Cl)c(C(F)(F)F)c1 24.4%
CCN(C(=O)Cc1nc(-c2ccc(OC)cc2)no1)c1cccc(Cl)c1 -1.38%
CCC1CN(C(=O)N2CCC(C(=O)Nc3cc(C)ccc3C)CC2)c2ccccc2O1 (stereo not given) -1.2%
Cc1cccc(-c2cc(NC(=O)C(C)(C)C)n(-c3ccccc3)n2)c1 1.39%
COc1ccc(C(CC(=O)Nc2cccc(C)c2C)N2Cc3ccccc3C2=O)cc1 (stereo not given) -1.22%
COc1cc(C2c3c(oc4ccccc4c3=O)C(=O)N2c2nncs2)cc(OC)c1OC (stereo not given) -2.19%
O=C(COc1ccc(F)cc1)Nc1ccccc1C(=O)OCc1cc(=O)n2nc(C3CC3)sc2n1 7.68%
CCOc1ccc(-c2cn3c(n2)sc2cc(C(=O)NCCCc4ccccc4)ccc23)cc1 -14.6%
Cc1nc2nc(SCc3ccc(F)cc3Cl)nn2c(C)c1Cc1ccccc1 9.1%
O=C(CS(=O)(=O)c1cccc2nsnc12)NCc1ccc(Cl)cc1 -6.62%
COc1ccc(-c2c(C)nn3c4c(cnc23)C(=O)CC(c2ccccc2)C4)cc1 (stereo not given) 3.66%
CC(NC(=O)c1ccc(Nc2nc3ccccc3n3nnnc23)cc1)c1ccccc1 (stereo not given) -11.8%
Cc1nc2nc(-c3ccc(Cl)cc3Cl)nn2c(C)c1CCC(=O)Nc1ccc(F)cc1 0.312%
COc1cccc(N2CC(NC(=O)c3ccc4c(c3)OCO4)CC2=O)c1 (stereo not given) -0.129%
CCCCN(C)CCCNC(=O)CN1C(=O)COc2ccc(S(=O)(=O)N3CCOCC3)cc21 3.16%
COc1ccccc1N1CCN(S(=O)(=O)c2c(C)sc3ncn(CC(=O)Nc4ccc(C(F)(F)F)cc4)c(=O)c23)CC1 0.432%
CC(=O)c1ccc(NC(=O)C2CCCN(S(=O)(=O)c3ccc4c(c3)CCCN4C(C)=O)C2)cc1 (stereo not given) -7.32%
